Values joined by “and” are separate entries in the source; they are usually repeats but may differ in a detail not shown here. Equal values may be shown once. The whole screen tested about 360,000 compounds, of which about 16,000 (4.4%) were called active. Inconclusive means that the source gave no clear call. Such entries were picked first, then a sample of the others. Calls come from the whole dose curve; as a rule, active = well fitted inhibition curve with a large enough effect; inconclusive = small, poorly fitted or top-dose-only effect; inactive = no such curve, though single readings can be large or run the other way. Potencies beside an inconclusive call are fits to weak or partial responses and may not hold up.
molecular target: Bromodomain adjacent to zinc finger domain protein 2B (Homo sapiens) (UniProt Q9UIF8); experiment: qHTS Assay for Inhibitors of BAZ2B; conditions: AlphaScreen BAZ2B-H3K14Ac peptide displacement; series mostly up to 114 µM; note: nearly all actives have a fitted effect of over 60% in size
Chain of UniProt Q9UIF8 (Q9UIF8 whole entry, looked up, the tested form may be a part): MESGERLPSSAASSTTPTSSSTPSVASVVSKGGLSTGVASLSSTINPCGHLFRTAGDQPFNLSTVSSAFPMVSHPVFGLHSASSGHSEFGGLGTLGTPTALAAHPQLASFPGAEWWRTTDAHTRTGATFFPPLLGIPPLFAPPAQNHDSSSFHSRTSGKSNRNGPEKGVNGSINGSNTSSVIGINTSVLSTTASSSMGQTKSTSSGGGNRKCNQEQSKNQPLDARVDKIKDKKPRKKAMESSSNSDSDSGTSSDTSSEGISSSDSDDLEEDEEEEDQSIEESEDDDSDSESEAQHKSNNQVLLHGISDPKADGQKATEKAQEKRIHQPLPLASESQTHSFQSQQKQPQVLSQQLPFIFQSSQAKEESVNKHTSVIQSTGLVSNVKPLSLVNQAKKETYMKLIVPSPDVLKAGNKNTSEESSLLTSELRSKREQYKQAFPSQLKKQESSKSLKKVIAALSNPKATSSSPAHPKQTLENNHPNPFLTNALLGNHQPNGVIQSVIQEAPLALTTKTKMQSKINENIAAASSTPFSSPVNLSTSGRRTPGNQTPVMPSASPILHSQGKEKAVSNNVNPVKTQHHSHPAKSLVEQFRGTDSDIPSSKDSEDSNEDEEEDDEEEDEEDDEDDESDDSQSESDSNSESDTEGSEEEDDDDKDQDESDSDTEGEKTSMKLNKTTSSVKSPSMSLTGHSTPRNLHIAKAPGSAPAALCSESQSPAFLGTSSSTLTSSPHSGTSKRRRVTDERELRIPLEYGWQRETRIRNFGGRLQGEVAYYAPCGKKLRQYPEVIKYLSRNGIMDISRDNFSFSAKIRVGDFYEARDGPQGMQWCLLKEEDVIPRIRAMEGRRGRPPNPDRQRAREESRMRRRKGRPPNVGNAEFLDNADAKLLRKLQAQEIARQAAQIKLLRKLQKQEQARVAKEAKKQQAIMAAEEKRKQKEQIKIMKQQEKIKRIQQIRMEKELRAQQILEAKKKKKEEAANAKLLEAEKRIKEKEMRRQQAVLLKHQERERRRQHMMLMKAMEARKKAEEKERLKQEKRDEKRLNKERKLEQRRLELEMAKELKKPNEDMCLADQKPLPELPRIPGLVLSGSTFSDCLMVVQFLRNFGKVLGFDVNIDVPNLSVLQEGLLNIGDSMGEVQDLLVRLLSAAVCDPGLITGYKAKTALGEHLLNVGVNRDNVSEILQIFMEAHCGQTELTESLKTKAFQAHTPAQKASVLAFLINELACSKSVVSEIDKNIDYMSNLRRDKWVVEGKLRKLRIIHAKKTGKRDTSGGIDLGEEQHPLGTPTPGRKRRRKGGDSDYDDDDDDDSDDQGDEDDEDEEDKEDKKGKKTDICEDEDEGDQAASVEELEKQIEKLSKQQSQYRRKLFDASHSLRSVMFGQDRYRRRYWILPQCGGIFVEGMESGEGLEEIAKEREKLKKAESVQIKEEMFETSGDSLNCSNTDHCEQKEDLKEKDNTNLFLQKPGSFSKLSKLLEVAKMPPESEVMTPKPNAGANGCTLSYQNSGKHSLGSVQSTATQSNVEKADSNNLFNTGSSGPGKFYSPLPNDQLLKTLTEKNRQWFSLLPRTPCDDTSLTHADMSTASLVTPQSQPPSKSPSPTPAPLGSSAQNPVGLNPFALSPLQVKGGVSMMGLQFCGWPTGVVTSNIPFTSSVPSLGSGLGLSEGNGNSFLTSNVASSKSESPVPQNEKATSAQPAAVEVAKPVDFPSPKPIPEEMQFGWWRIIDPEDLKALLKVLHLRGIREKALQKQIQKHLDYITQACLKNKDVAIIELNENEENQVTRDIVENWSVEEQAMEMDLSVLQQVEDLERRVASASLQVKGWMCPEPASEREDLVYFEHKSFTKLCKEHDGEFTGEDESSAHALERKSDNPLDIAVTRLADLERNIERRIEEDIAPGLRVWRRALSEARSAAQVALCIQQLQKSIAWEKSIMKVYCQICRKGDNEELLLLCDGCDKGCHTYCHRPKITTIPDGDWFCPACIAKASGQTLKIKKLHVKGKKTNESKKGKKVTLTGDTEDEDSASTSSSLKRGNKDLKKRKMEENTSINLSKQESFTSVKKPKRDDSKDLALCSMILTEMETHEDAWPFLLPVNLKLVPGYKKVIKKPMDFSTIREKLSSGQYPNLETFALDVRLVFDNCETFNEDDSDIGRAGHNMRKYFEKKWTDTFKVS
Summary of the method: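 In this displacement format the biotinylated H3(5-23) peptide acetylated at Lys14 serves as ligand at 50 nM, with BAZ2B at 50 nM in PBS pH 7.4 containing 0.01% Tween-20. Donor and acceptor beads are 10 ug/mL final.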
Potency is the fitted concentration of half-maximal effect; tags give direction and shape of the fitted curve.

With CC(C)C(NC(=O)c1ccco1)C(=O)NCC(c1ccco1)N(C)C (configuration not stated) as the compound, how does the Potency read?
Its Potency is inconclusive: 39.8 µM [inhibitor, single point].

Which Potency does the source give for CCCCCN1CC(O)=C(c2ccccc2)C1=N here?
Its Potency is inconclusive: 3.55 µM [inhibitor, full curve, poor fit].

How did the Potency turn out when COc1ccc(S(=O)(=O)NCC(c2ccco2)N2CCN(c3ccccc3F)CC2)cc1OC (configuration not stated) was run?
The Potency was inconclusive: 89.1 µM [inhibitor, single point].

For Cc1cccc(N2CCN(S(=O)(=O)c3ccc4c(c3)CCN4C(=O)CCC(=O)O)CC2)c1C, which Potency is on record?
Its Potency is inconclusive: 89.1 µM [inhibitor, single point].

COc1cccc(CN2CCN(Cc3cc(OC)c(OC)cc3OC)CC2)c1 was tested. Which Potency did it give?
The Potency was active: 20 µM.

Which Potency does the source give for CCN(CC)CCN1CCn2c3c(c4cc(C)ccc42)CCCC31 (configuration not stated) here?
The Potency was inconclusive: 79.4 µM [inhibitor, single point].

How did the Potency turn out when CNc1nc(-c2ccccn2)nnc1-c1ccccc1 was run?
Its Potency is active: 0.891 µM.

With COc1ccc(N2CCN(C(=O)c3ccc(F)cc3)CC2)c([N+](=O)[O-])c1 as the compound, how does the Potency read?
Its Potency is inconclusive: 50.1 µM [inhibitor, partial curve].

O=[N+]([O-])c1ccc(N/N=C/c2c[nH]c3ccccc23)cc1 was tested. Which Potency did it give?
Its Potency is inconclusive: 50.1 µM [inhibitor, partial curve].

With Cc1ccc(CN2CCc3nc(N4CCN(C)CC4)ncc3C2)cc1 as the compound, how does the Potency read?
The Potency was inconclusive: 79.4 µM [inhibitor, single point].

How did the Potency turn out when O=C(c1cccc(Oc2ccc([N+](=O)[O-])cc2)c1)N1CCOCC1 was run?
The Potency was “inactive”.

Which Potency does the source give for O=C(/C=C/c1ccc(Cl)cc1)NC(=S)NN1CCCCC1c1cccnc1 (configuration not stated) here?
The Potency was inconclusive: 79.4 µM [inhibitor, single point].

How did the Potency turn out when O=[N+]([O-])c1ccc(N2CCCC2)nc1N1CCCC1 was run?
The Potency was inconclusive: 39.8 µM [inhibitor, partial curve].

How did the Potency turn out when COc1ccc(N2CCN(C(=O)Cc3noc4ccc(C)cc34)CC2)cc1 was run?
Its Potency is inconclusive: 79.4 µM [inhibitor, single point].

For CC(C)CCN1C(=O)c2ccc(C(=O)Nc3ccccc3C(=O)O)cc2C1=O, which Potency is on record?
Its Potency is “inactive”.

With O=C(c1ccccc1)N1CCN(Cc2cccc(Oc3ccccc3)c2)CC1 as the compound, how does the Potency read?
Its Potency is active: 50.1 µM.

Which Potency does the source give for CN(c1ccc(OCC(=O)NC2=NCCS2)cc1)S(=O)(=O)c1ccc(F)cc1 here?
Its Potency is inconclusive: 89.1 µM [inhibitor, single point].

For COc1ccc(C(C#N)=C2C=CC(=NO)C=C2)cc1, which Potency is on record?
Its Potency is active: 14.1 µM.

With O=C(N/N=C/c1ccccn1)C1CC1 as the compound, how does the Potency read?
The Potency was inconclusive: 70.8 µM [inhibitor, single point].

With CC1CCCN(CCOc2ccc3ccccc3c2Br)C1 (configuration not stated) as the compound, how does the Potency read?
Its Potency is active: 22.4 µM.

O=C(O)COc1ccccc1/C=N/NC(=O)COc1ccc(-c2ccccc2)cc1 was tested. Which Potency did it give?
The Potency was inconclusive: 56.2 µM [inhibitor, partial curve].

With CC(C)CCC1(C)NC(=O)N(CC(=O)c2ccc[nH]2)C1=O (configuration not stated) as the compound, how does the Potency read?
Its Potency is inconclusive: 89.1 µM [inhibitor, single point].

Cn1c(=O)n(Cc2ccccc2)c(=O)c2c1nc1n2CCCN1CCc1ccccc1 was tested. Which Potency did it give?
The Potency was inconclusive: 70.8 µM [inhibitor, single point].

For Cc1ccccc1NCC(=O)N/N=C\C=C\c1cccc([N+](=O)[O-])c1, which Potency is on record?
The Potency was inconclusive: 79.4 µM [inhibitor, single point].

With O=S(=O)(Nc1nc2cc3c(cc2nc1Cl)OCCO3)c1ccccc1 as the compound, how does the Potency read?
The Potency was inconclusive: 89.1 µM [inhibitor, single point].

For CCOC(=O)C1=C(CN2CCN(c3ccccc3F)CC2)NC(=O)NC1c1ccc(OC)cc1 (configuration not stated), which Potency is on record?
Its Potency is inconclusive: 70.8 µM [inhibitor, single point].

Which Potency does the source give for Cn1ccc2cc(-c3ccc4ncnc(NCc5cccc(F)c5)c4c3)ccc21 here?
Its Potency is “inactive”.

For COc1cc(C(=O)CSc2nncn2C)cc(OC)c1OC, which Potency is on record?
The Potency was inconclusive: 5.01 µM [inhibitor, full curve, poor fit].

For Cc1ccc(CNC(=O)CCc2c(C)nn(-c3ccc(N4CCCC4)nn3)c2C)cc1, which Potency is on record?
Its Potency is inconclusive: 50.1 µM [inhibitor, partial curve, poor fit].

For O=C(c1ccco1)N1CCCC(Nc2ccc3c(c2)OCCO3)C1 (configuration not stated), which Potency is on record?
The Potency was inconclusive: 79.4 µM [inhibitor, single point].

CCc1cccc(C)c1Nc1c(-c2cccc(O)c2)nc2cnccn12 was tested. Which Potency did it give?
The Potency was “inactive”.

O=C(CN(Cc1ccco1)C(=O)c1cccc(F)c1)Nc1ccccc1C(F)(F)F was tested. Which Potency did it give?
The Potency was “inactive”.

For Cc1c(C)n(C)c2ccc(C(=O)N3CCN(c4ccccn4)CC3)cc12, which Potency is on record?
The Potency was inconclusive: 50.1 µM [inhibitor, partial curve].

How did the Potency turn out when Cn1c(CCC(=O)Nc2cc(S(C)(=O)=O)ccc2Cl)nc2cc(S(=O)(=O)N3CCOCC3)ccc21 was run?
The Potency was active: 79.4 µM.

COc1cc(OC)cc(C(=O)OCc2ccc([N+](=O)[O-])cc2)c1 was tested. Which Potency did it give?
The Potency was “inactive”.

For CC(Nc1nc(-c2ccc3c(c2)NC(=O)CO3)cs1)c1ccccc1 (configuration not stated), which Potency is on record?
The Potency was inconclusive: 79.4 µM [inhibitor, single point].

Which Potency does the source give for Cc1oc2c(O)c(O)ccc2c(=O)c1-c1ccccc1 here?
The Potency was inconclusive: 50.1 µM [inhibitor, partial curve].

How did the Potency turn out when Cc1ccccc1S(=O)(=O)Cc1ccc(C(=O)NCc2ccccc2)o1 was run?
The Potency was “inactive”.

For CCOc1ccc(N(Cc2cc3cc(C)ccc3[nH]c2=O)C(=O)c2cccc(Cl)c2)cc1, which Potency is on record?
Its Potency is “inactive”.

O=C(Nc1ccc(Cl)c(S(=O)(=O)N2CCOCC2)c1)c1ccc(OCC2CCCO2)cc1 (configuration not stated) was tested. Which Potency did it give?
Its Potency is inconclusive: 39.8 µM [inhibitor, partial curve].

For CCOC(=O)C1=C(O)/C(=C/c2ccc(OCC(=O)O)c(OC)c2)SC1=Nc1ccc(OC)cc1, which Potency is on record?
Its Potency is inconclusive: 100 µM [inhibitor, single point].

CCOC(=O)c1ccc(-n2c(CCC(=O)O)ccc2-c2cccs2)cc1 was tested. Which Potency did it give?
Its Potency is inconclusive: 50.1 µM [inhibitor, partial curve].

For Cc1cc([N+](=O)[O-])nn1CC(=O)N/N=C/c1ccccc1Br, which Potency is on record?
The Potency was “inactive”.

Which Potency does the source give for CCN1C(=O)[C@@H]2[C@@H](c3ccc(-c4ccc(Cl)c(Cl)c4)c(OC)c3)N3CCC[C@@]3(C(=O)OC)[C@@H]2C1=O here?
Its Potency is inconclusive: 44.7 µM [inhibitor, partial curve].

For O=C(COC(=O)c1ccccc1Oc1ccccc1)NCc1ccco1, which Potency is on record?
The Potency was active: 28.2 µM.

For CNC(=O)CSc1nc2sccc2c(=O)n1-c1ccccc1, which Potency is on record?
The Potency was “inactive”.

With Cc1cccc(C)c1OCC(=O)N(Cc1ccc(Cl)cc1)CC1CCCO1 (configuration not stated) as the compound, how does the Potency read?
Its Potency is “inactive”.

CCOc1cc(N2CCOCC2)c(OCC)cc1NC(=O)CN1CCCC1 was tested. Which Potency did it give?
The Potency was active: 12.6 µM.

How did the Potency turn out when CNC(=O)CSc1nc(-c2ccccc2)c(-c2ccccc2)o1 was run?
Its Potency is inconclusive: 79.4 µM [inhibitor, single point].

How did the Potency turn out when CC(C)CC(=O)O/N=C1\C(=O)N(Cc2ccc(Cl)cc2)c2ccc([N+](=O)[O-])cc21 was run?
Its Potency is inconclusive: 39.8 µM [inhibitor, partial curve].

How did the Potency turn out when S=C(Nc1ccc(Cl)cc1)c1nc2ccccc2[nH]1 was run?
Its Potency is active: 44.7 µM.

Which Potency does the source give for COc1ccc(C(=O)NCc2nnc(SCC(=O)N3CCC(C)CC3)o2)cc1 here?
The Potency was “inactive”.

How did the Potency turn out when Cc1ccc(/C=C/C(=O)O)cc1S(=O)(=O)Nc1ccccc1C(=O)O was run?
The Potency was inconclusive: 79.4 µM [inhibitor, single point].

With Cc1nc(C)c(C(=O)N(c2ccccc2F)C(C(=O)NCC2CCCO2)c2ccccc2)s1 (configuration not stated) as the compound, how does the Potency read?
The Potency was “inactive”.

Which Potency does the source give for O=C(OC1CCCCC1=O)c1cc(S(=O)(=O)N2CCOCC2)ccc1F (configuration not stated) here?
The Potency was “inactive”.

How did the Potency turn out when O=C1NNC(=O)C1c1ccccc1 was run?
The Potency was inconclusive: 89.1 µM [inhibitor, single point].

How did the Potency turn out when Cc1c(C(C)(C(=O)O)c2c(C)n(C)c3ccccc23)c2ccccc2n1C was run?
The Potency was inconclusive: 70.8 µM [inhibitor, single point].

Cc1ccccc1NC(=S)NCCC(c1ccccc1)c1ccccc1 was tested. Which Potency did it give?
Its Potency is “inactive”.

How did the Potency turn out when Cc1nc2sccn2c(=O)c1S(=O)(=O)NCc1ccccc1 was run?
The Potency was “inactive”.

How did the Potency turn out when COc1ccccc1NC(=O)C(=O)N/N=C(\C)CC(=O)Nc1ccccn1 was run?
Its Potency is active: 79.4 µM.

Cc1ccc(C2CC(=O)Nc3c2ccc2ccccc32)cc1[N+](=O)[O-] (configuration not stated) was tested. Which Potency did it give?
Its Potency is inconclusive: 28.2 µM [inhibitor, full curve, poor fit].

How did the Potency turn out when Cc1ccc(C)c(N2CCN(C(=O)c3ccc4c(c3)c(C)c(C)n4C)CC2)c1 was run?
The Potency was active: 31.6 µM and active: 35.5 µM.

COc1ccc2sc(NC(=O)c3ccco3)nc2c1 was tested. Which Potency did it give?
Its Potency is inconclusive: 89.1 µM [inhibitor, single point].

With CCOC(=O)c1cc(-c2ccc(F)cc2)n(CC(=O)NC2CCCCC2)c1C as the compound, how does the Potency read?
Its Potency is “inactive”.

For COc1ccc(C(c2nnnn2Cc2ccccc2)N2CCN(c3nc4ccccc4s3)CC2)cc1OC (configuration not stated), which Potency is on record?
The Potency was “inactive”.

How did the Potency turn out when COc1ccc(-c2c(C)nn3c(C(F)(F)F)cc(-c4ccc(Br)cc4)nc23)cc1 was run?
Its Potency is inconclusive: 0.708 µM [inhibitor, full curve, poor fit].

How did the Potency turn out when COc1ccc(-n2c(/C=C/c3cc(OC)c(OC)cc3OC)nc3cc4ccccc4cc3c2=O)cc1Cl was run?
The Potency was active: 28.2 µM.

With COc1ccc(COC(=O)C2=C(C)NC(=O)NC2c2ccc(OC)cc2)cc1 (configuration not stated) as the compound, how does the Potency read?
Its Potency is “inactive”.

Which Potency does the source give for O=C(O)c1cccc(Cn2cc(Cl)cn2)c1 here?
The Potency was inconclusive: 89.1 µM [inhibitor, single point].

With Cc1ccc2c(c1)Sc1c(ccc3ccccc13)N2 as the compound, how does the Potency read?
Its Potency is active: 39.8 µM.

CN1CC(c2ccc(C#N)cc2)C2(COc3ccccc3C2=O)C12C(=O)Nc1ccccc12 (configuration not stated) was tested. Which Potency did it give?
Its Potency is inconclusive: 79.4 µM [inhibitor, single point].

With COc1ccc(-c2oc(NC(=O)CSc3ncn[nH]3)c(C#N)c2-c2ccc(OC)cc2)cc1 as the compound, how does the Potency read?
The Potency was inconclusive: 31.6 µM [inhibitor, full curve].
